In all, about 310,000 compounds went through this assay and about 14,000 (4.5%) showed an effect of 50% or more. The effect is printed as a negative number. The list shows a part of the results.
Target: human ether-à-go-go-related gene (hERG) potassium channel (human, UniProt Q12809)
Assay: primary screen, population patch clamp on CHO cells stably expressing hERG
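Also: peak tail current of the secondary pulse compared with the same well before compound.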

Chain of human ether-à-go-go-related gene (hERG) potassium channel (Q12809 whole entry, looked up): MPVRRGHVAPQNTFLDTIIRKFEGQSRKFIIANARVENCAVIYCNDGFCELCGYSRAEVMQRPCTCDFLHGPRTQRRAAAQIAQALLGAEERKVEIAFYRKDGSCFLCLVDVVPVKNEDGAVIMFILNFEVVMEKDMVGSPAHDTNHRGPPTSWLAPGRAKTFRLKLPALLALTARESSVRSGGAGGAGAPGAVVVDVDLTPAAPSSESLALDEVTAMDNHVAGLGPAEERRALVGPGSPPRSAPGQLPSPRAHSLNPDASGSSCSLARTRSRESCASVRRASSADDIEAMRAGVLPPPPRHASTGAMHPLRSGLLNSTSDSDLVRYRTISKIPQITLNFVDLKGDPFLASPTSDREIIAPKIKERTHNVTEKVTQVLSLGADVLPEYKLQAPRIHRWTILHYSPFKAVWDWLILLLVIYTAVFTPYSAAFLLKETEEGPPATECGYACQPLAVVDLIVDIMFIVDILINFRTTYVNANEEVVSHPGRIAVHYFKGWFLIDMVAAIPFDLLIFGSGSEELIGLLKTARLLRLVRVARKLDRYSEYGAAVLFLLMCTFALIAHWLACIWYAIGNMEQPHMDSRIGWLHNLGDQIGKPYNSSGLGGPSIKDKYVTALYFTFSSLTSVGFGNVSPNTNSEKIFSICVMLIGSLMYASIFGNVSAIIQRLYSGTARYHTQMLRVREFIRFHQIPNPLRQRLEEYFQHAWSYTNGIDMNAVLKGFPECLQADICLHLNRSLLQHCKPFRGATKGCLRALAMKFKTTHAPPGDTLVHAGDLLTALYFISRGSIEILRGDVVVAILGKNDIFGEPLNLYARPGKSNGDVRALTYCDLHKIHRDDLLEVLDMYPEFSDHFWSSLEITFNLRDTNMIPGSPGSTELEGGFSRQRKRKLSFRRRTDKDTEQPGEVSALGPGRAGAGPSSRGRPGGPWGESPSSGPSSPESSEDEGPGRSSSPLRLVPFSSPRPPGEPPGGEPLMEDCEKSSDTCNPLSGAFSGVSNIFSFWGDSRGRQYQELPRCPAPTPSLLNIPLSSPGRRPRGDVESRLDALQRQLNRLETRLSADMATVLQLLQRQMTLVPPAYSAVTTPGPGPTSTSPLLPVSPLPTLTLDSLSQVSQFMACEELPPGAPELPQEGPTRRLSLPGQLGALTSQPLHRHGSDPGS

Row | SMILES | hERG current change (%, negative = inhibition) at 10uM [%]
1 | O=C(CSc1nc(C2CC2)n(-c2ccccc2)n1)NCc1ccco1 | -17.2
2 | N#Cc1c(N2CCOCC2)nsc1-c1ccc(C(F)(F)F)cc1 | -0.272
3 | COC(=O)c1oc2ccc(Br)cc2c1NC(C)=O | 3.19
4 | N#Cc1cc2c([nH]c1=S)CCCCCC2 | 3.43
5 | COc1ccc(N2C(=O)C3C(c4ccc(OC)cc4O)NC(Cc4ccccc4)(C(=O)O)C3C2=O)cc1 (stereo not shown) | 19.5
6 | Cl.OC(c1ccc(F)cc1)C(c1ccccc1)N1CCOCC1 (stereo not shown) | 5.22
7 | Cc1cnc(C(=O)N2CCN(S(=O)(=O)c3ccc4ccccc4c3)CC2)cn1 | -8.41
8 | C=CCn1c2ccccc2c(=O)c2cc(C#Cc3ccccn3)ccc21 | -0.113
9 | O=c1nc(Nc2ccccc2)sc2ccc([N+](=O)[O-])cc12 | 0.136
10 | Cc1ccccc1NCC(=O)Nc1cc(S(=O)(=O)N2CCCCC2)ccc1C | 0.834
11 | COc1ccc(OC)c(NC(=O)CCNS(=O)(=O)c2cccs2)c1 | 1.56
12 | Cc1cccc(C(C)C)c1NC(=O)CN1C(=O)NC2(CCc3ccccc32)C1=O (stereo not shown) | 19.4
13 | Cc1ccc(S(=O)(=O)n2cc(-c3ccccc3)c3ccccc32)cc1 | 16.5
14 | C[C@H](NC(=O)OCc1ccccc1)c1nnc([C@H](C)NC(=O)OCc2ccccc2)o1 | -38.7
15 | CCOc1ccc(CC(=O)NNC(=O)/C=C/C(=O)O)cc1 | 15.9
16 | CC(C)(C)c1ccc(C(=O)NCCCNC(=O)c2cccnc2)cc1 | 11.7
17 | COc1cccc(-c2cc(=O)[nH][nH]2)c1 | 18
18 | C[C@H](CCC(=O)O)[C@H]1CC[C@H]2[C@@H]3CC[C@@H]4C[C@H](O)CC[C@]4(C)[C@H]3CC[C@]12C | 33.5
19 | COc1ccccc1C(CNC(=O)CNC(=O)c1ccc(C)c(C)c1)N1CCCC1 (stereo not shown) | -6.27
20 | CCOC(=O)N1CCC(N(CCN(C)C)C(=S)Nc2cc(C)ccc2C)CC1 | 3.51
21 | Cc1ccc(C)c(NC(=O)COC(=O)c2cc3ccccc3oc2=O)c1 | -7.96
22 | CN(C)CCCN(C(=O)c1cc2ccccc2oc1=O)c1nc2ccc(F)cc2s1.Cl | -68.1

Row | SMILES | hERG current change (%, negative = inhibition) at 10uM [%]
23 | COC(=O)CN(n1cnnc1)S(=O)(=O)c1ccccc1Cl | -15
24 | Cc1cc(OCC(=O)Nc2ccc(S(=O)(=O)N3CCN(C)CC3)cc2)cc(C)c1Cl | -10.2
25 | O=C(CSc1nc(=O)n(CCCN2CCOCC2)c2c1CCCC2)Nc1ccc(F)c(F)c1 | -58
26 | C#CCOCCOCCOCCNc1nc(N2CCN(C(=O)CCCCCCCCCCNC(=O)Cn3cc(CCCCCN)nn3)CC2)nc(N2CCN(C(=O)CCCCCCCCCCNC(=O)[C@@H](CCC(=O)O)n3cc(CCCCCN)nn3)CC2)n1 | -5.58
27 | O=C(O)C12CC3CC(C1)CC(n1ncc(NCc4ccccc4)c(Cl)c1=O)(C3)C2 | 9
28 | Cc1ccc(S(=O)(=O)c2nnn(-c3cccc(F)c3)c2N)cc1 | -4.77
29 | C=CCn1c(SCC(=O)NCCOC)nc2scc(-c3ccco3)c2c1=O | -46.8
30 | Oc1ccc(-c2[nH]nc(-c3ccccc3)c2-c2nc3ccccc3[nH]2)cc1 | -12.7
31 | COc1ccc(C(C(=O)NC2CCCC2)N(C(=O)c2snc(-c3ccc(F)cc3)c2N)c2cccc(F)c2)cc1 (stereo not shown) | 2.28
32 | Cc1cc(C)n(C(=O)c2cc3ccccc3c(=O)o2)n1 | -5.29
33 | COc1cc(/C=C(/C#N)c2ccc(F)cc2)ccc1OCc1ccc(C(=O)O)o1 | 11.8
34 | O=C(O)c1ncsc1-c1ccccc1 | 14.9
35 | CCn1ccc(C(=O)NC2C(=O)N3C(C(=O)O)=C(C)CSC23)n1 (stereo not shown) | 7.31
36 | Cc1ccc(NC(=O)c2noc3c2CCCCC3)cc1C | -0.563
37 | CCOc1ccc(/C(O)=C2/C(=O)C(=O)N(CCCN3CCOCC3)C2c2ccc(C)cc2)cc1C (stereo not shown) | 23.8
38 | COC(=O)c1nc(N)sc1-c1ccccc1 | 5.87
39 | CCOc1cc(C)c(Cl)cc1S(=O)(=O)N(CC)CC | -4.49
40 | CCCNC(=O)Cn1c(=O)/c(=C\c2ccc(-c3cccc([N+](=O)[O-])c3)o2)s/c1=C\C(=O)C(C)(C)C | 11.4
41 | CN(C)c1ccc(C=Nc2ccc(N(C)C)cc2)cc1 | -13.5
42 | O=C(CN(Cc1ccccc1F)S(=O)(=O)c1ccc(Cl)cc1)NCCCO | -18.3
43 | Cc1c(OC(C)C(=O)NCCN2CCOCC2)ccc2c3c(c(=O)oc12)CCCC3 (stereo not shown) | 5.87
44 | COc1ccc(Oc2cccc(Cl)c2CNC(=O)CCC(=O)O)cc1 | -0.617

Row | SMILES | hERG current change (%, negative = inhibition) at 10uM [%]
45 | CCOc1cc(-c2conc2N)cc(OCC)c1OCC | -16.5
46 | Cc1oc2c(C)c3oc(=O)c(CCC(=O)NCCCn4ccnc4)c(C)c3cc2c1C | -35.9
47 | CCOCCCNC(=O)/C(C#N)=C/c1ccc(Cl)c([N+](=O)[O-])c1 | -5.95
48 | CCOC(=O)/C=C1\Nc2ccccc2SC1=O | -45.3
49 | Cc1ccc(C(=O)N/C(=C/c2ccc(N(C)C)cc2)C(=O)NCC2CCCO2)cc1 (stereo not shown) | 9.55
50 | Cc1ccc2c(cnn2C(=O)CCC(=O)N2CCCCC2)c1 | -9
51 | CCCc1cc(=O)[nH]c(SCCOc2ccc(OCC)cc2)n1 | 4.7
52 | CCCOc1cc(N(CC)CC)ccc1/C=C(/C#N)c1nc2ccc(C)cc2[nH]1 | 3.81
53 | COc1ccc(S(=O)(=O)N2CCC(C(=O)NCC(c3cccs3)N(C)C)CC2)cc1 (stereo not shown) | -15.8
54 | Cc1ccc(C(=O)NC(N(C)C)C(Cl)(Cl)Cl)cc1 (stereo not shown) | -0.546
55 | CCCC(=O)NCC(c1cccs1)S(=O)(=O)c1ccc(Cl)cc1 (stereo not shown) | -3
56 | Cc1ccc(N2C(=O)CSCC2=O)cc1 | -6.43
57 | C=CCNC(=S)N/N=C/c1cn(C)c2ccccc12 | 3.16
58 | CCOC(=O)C1CCN(C(=O)CSc2c3c(nc4ccccc24)CCC3)CC1 | -21.3
59 | Nc1ccc(C(=O)OCC(=O)NC2CC2)cc1[N+](=O)[O-] | 3.72
60 | CN(C)C(=O)c1ccc(NC(=O)c2cccc(S(=O)(=O)N3CCCc4ccccc43)c2)cc1 | -8.06
61 | Cc1cc(NC(=O)c2ccc(COc3ccc(Cl)c(C)c3)o2)no1 | 4.29
62 | CCc1ccc(CNC(=O)c2ccc3nc(C4CCCCC4)oc3c2)nc1 | -15.8
63 | Cn1c(CO)cnc1S(=O)(=O)Cc1c(Cl)cccc1Cl | 7.65
64 | O=C(Nc1ccc(Cl)cc1)N(Cc1cccs1)Cc1cccs1 | 0.899
65 | CCc1nnc(NC(=O)c2cccc(S(=O)(=O)N(C)c3ccccc3)c2)s1 | 17.9
66 | CCOc1ccc(/C=N/NC(=O)c2cc3c(OC)cc(OC)cc3[nH]2)cc1OC | 16

Row | SMILES | hERG current change (%, negative = inhibition) at 10uM [%]
67 | Cc1c(Cl)cccc1NC(=O)Cn1cnc(S(=O)(=O)N2CCCC2)c1 | 20.3
68 | Cc1cc(C)c(NC(=O)C2=COCCO2)c(C)c1 | -1.08
69 | COc1ccc(C(=O)Oc2cc(N)n(S(=O)(=O)c3ccccc3)n2)cc1 | -7.73
70 | COc1ccc(C)cc1S(=O)(=O)Nc1ccc2c(c1)OCO2 | 17.8
71 | COc1cc(C#Cc2c(C=O)n(C)c3ccccc23)cc(OC)c1 | 22.9
72 | Cc1cc(C)n(CC(=O)N/N=C/c2cccs2)n1 | -2.48
73 | CCN(CC)S(=O)(=O)c1cc(NC(=O)CSc2nnc(N)s2)ccc1C | 0.0632
74 | O=C(CC(Nc1ccc(Cl)cc1Cl)C(=O)O)c1ccccc1 (stereo not shown) | 16.3
75 | CCCCC1=CC2=C(c3ccco3)C(=O)C(C)(OC(=O)c3ccc(OC)cc3)C(=O)C2=CN1CCCOC(C)C (stereo not shown) | 3.54
76 | COc1ccc(S(=O)(=O)N2CCC(C(=O)NC(C)CCc3ccccc3)CC2)cc1 (stereo not shown) | -4.03
77 | Cc1ccc(N2CC(C(=O)Nc3ccccc3C(=O)NC3CCCCC3)CC2=O)cc1C (stereo not shown) | -17.9
78 | Cl.OC(CN1CCCCC1)Cn1c(C(F)(F)F)nc2ccccc21 (stereo not shown) | 4.06
79 | CC(C)OC(=O)CSc1nc(N2CCOCC2)c2c(c1C#N)CC(C)(C)OC2 | -29.8
80 | CCOc1ccc(S(=O)(=O)N2CCOCC2)cc1NC(=O)CN1C(=O)NC(C)(c2ccccc2)C1=O (stereo not shown) | -52.6
81 | CN1CCN(C(=O)C2=C[C@@H](c3ccccc3)C[C@@H](OCCCCO)O2)CC1 | -6.11
82 | CC1CCCC(NC(=O)C2CCN(S(=O)(=O)N3CCOCC3)CC2)C1C (stereo not shown) | -10.8
83 | Cc1cc(C)cc(NS(=O)(=O)c2c(C(=O)N3CCCCCC3)c(C)n(C)c2C)c1 | 4.69
84 | COc1ccc(CN2CCN(CCCc3ccccc3)C(CCO)C2)c(OC)c1 (stereo not shown) | -72.9
85 | Cc1ccc(SCC(=O)OCC(=O)N(C)CC(=O)Nc2ccc(F)cc2)cc1 | -23.4

Source: publication PMC4336329 (PLoS ONE, 2015)
